Data published in PubChem BioAssay AID1508624 (National Center for Advancing Translational Sciences (NCATS), 2021).
About 120 (0.25%) of roughly 48,000 compounds were called active. About 4% were inconclusive and are not listed. The call rests on the fitted dose curve; in most records, active means well fitted activation curve with a large enough effect; inconclusive means small, poorly fitted or top-dose-only effect, or another doubt; inactive means no such curve, though single readings can be large or run the other way. This is one part of the list.

Experiment: Primary qHTS for Identification of Small Molecule Activators of Huntingtin-Antisense Promoter Activity; further: nearly all actives have a fitted effect of over 55% in size
Conditions: HEK293 HTT-AS promoter firefly luciferase reporter, 24 h; series mostly up to 57.5 µM; activity change, positive = activation: at the top concentration
Summary of the method: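 HEK293 Fluc reporter, 2,500 cells/well, 24 h pre-culture; cpds up to 57.5 uM final, 24 h 37 degrees C; Dual-Glo, 10 min RT; normalized vehicle = 0%, zero RLU = -100%.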

Activity change, positive = activation, inactive:
Cc1cccc(NC(=O)COc2cccc3c(=O)n(C)ccc23)c1C -32.5%
CCOc1cc(C2c3c(oc4ccccc4c3=O)C(=O)N2c2ccccn2)ccc1O (stereo not given) -11%
Cc1ccc(C)c(-c2[nH]c3c(c2-c2c(-n4cccc4)n(C)c(=O)n(C)c2=O)c(=O)n(C)c(=O)n3C)c1 -21.2%
COc1ccc(OC)c(NC(=O)c2cc(=O)c3c(C)cc(C)cc3o2)c1 1.28% [at 11.5 µM, percent change from vehicle, -100% = no light]
CCOC(=O)c1c(NC(=O)c2cc(Cl)ccc2Cl)sc2c1CCCC2 -6.2%
Cc1ccc(CNc2cc(C)nc3nc(-c4cccc(C)c4)nn23)cc1 5.39%
CN(C(=O)CSc1nc2ccc(NC(=O)COc3ccccc3)cc2s1)c1ccccc1 -42.3%
Cc1cccn2c(=O)c3cc(C(=O)Nc4ccc(Cl)c(Cl)c4)sc3nc12 -4.71%
Cc1ccc(Nc2ccc(N3CCN(C(=O)c4ccc([N+](=O)[O-])cc4)CC3)nn2)cc1 -8.07%
Cn1c(SCc2ccc(Br)cc2)nc2c([nH]c3ccccc32)c1=O -19.3%
Cc1ccc(S(=O)(=O)NCCc2csc(-c3cccc(F)c3)n2)cc1 -30.1%
CCOC(=O)c1cccc(NS(=O)(=O)c2cc3c(cc2C)NC(=O)CO3)c1 -21.3%
O=C(c1ccc(Nc2nc3ccccc3n3nnnc23)cc1)N1CCN(c2cccc(C(F)(F)F)c2)CC1 2.75%
Cc1ccc(NC(=O)CN2C(=O)CC(C)Sc3ccccc32)c(C)c1 (stereo not given) -18.8%
Cc1ccc(C)c(NS(=O)(=O)c2cc3c4c(c2)C(C)C(=O)N4CCC3)c1 (stereo not given) -15.2%
CCNC(=O)Cn1nc(C)n2c(cc3c(OC)cccc32)c1=O -0.929%
Cc1ccc(NC(=O)C2CCN(c3nnc(C)c4c(C)n(-c5ccccc5)nc34)CC2)cc1Cl -4.71%
Cc1c(Cl)cccc1-n1ncc(C(=O)N2CCOCC2)c1C1CCN(C(=O)OC(C)(C)C)CC1 0%
Cc1cc(C)n(C(C)CC(=O)NCc2ccc(Cl)cc2)n1 (stereo not given) -11.4%
Cc1ccc(OCC(=O)OCc2cc(=O)n3nc(C4CC4)sc3n2)cc1 -17%
CCc1ccccc1NC(=O)CC1Sc2ccc(C(F)(F)F)cc2NC1=O (stereo not given) -13.1%
CCCCSc1nnc2c(n1)OC(C)N(C(C)=O)c1ccccc1-2 (stereo not given) 10.4% [at 11.5 µM, percent change from vehicle, -100% = no light]
COc1ccc(CCNC(=O)C2COc3ccccc3C2)cc1OC (stereo not given) 14.5%
COc1ccc(CCNC(=O)Cc2c(C)c3cc4c(C)coc4c(C)c3oc2=O)cc1 -15.8%
Cn1c(Oc2ccc(Cl)cc2)nc2c1c(=O)n(Cc1ccc(F)cc1)c(=O)n2C -3.44%
COc1ccc(C(=O)NC(c2ccc(Cl)cc2)c2cc(Cl)c3cccnc3c2O)cc1 (stereo not given) -58.9%
O=C(NCCc1ccccc1)c1ccc2c(c1)N(Cc1ccc(F)cc1)C(=O)c1ccccc1S2 -9.74%
CC(=O)C1=C(O)C=C2Oc3c(C(C)=O)c(O)c(C)c(O)c3C2(C)C1=O (stereo not given) 5.48%
Cc1cc(C)cc(NC(=O)CCC(=O)N2CCSc3ccccc32)c1 -31.1%
CCCCN(CC)C(=O)c1cc2c(=O)n3cccc(C)c3nc2s1 12.2%
COc1cc(Cl)c(C)cc1NC(=O)c1cnc(N2CCOCC2)c2ccccc12 -8.89%
Cc1cc(Nc2nc(N[C@@H](C)c3ncc(F)cn3)ncc2Cl)n[nH]1 -36.2%
COc1ccc2c(CNCc3cccs3)c(C(=O)O)n(Cc3ccccc3F)c2c1 -18.3%
COc1ccc(CC(=O)N2CCc3cc(OC)c(OC)cc3C2COc2ccc(F)cc2)cc1OC (stereo not given) -16.7%
O=C(NCc1ccccc1)c1ccc2oc(=O)n(Cc3ccccc3)c2c1 -26.8%
CN(C)c1ccc(NC(=O)CSC2=Nc3ccccc3C3=NC(CCC(=O)NCc4cccs4)C(=O)N23)cc1 (stereo not given) -32.8%
Cc1ccc(C(=O)C(C)CN2CCCCC2)cc1 (stereo not given) -9.63%
Cn1c(SCC(=O)Nc2nc3ccccc3s2)ncc(C(=O)Nc2ccc(F)cc2)c1=O 8.1%
COc1cccc(C(=O)Nc2cccc(C(=O)OCc3cc(=O)n4c(C)csc4n3)c2)c1 -11.4%
NS(=O)(=O)c1ccc2nc(NC(=O)COc3ccc(Cl)cc3Cl)sc2c1 -15.7%
COCCNC(=O)c1ccc2c(c1)N=C(C)c1cc(C)ccc1S2 -31.8%
CCOC(=O)COc1ccc(C)cc1C(=O)c1ccn2nc(-c3ccc(F)cc3)cc2n1 -1.29%
COCCCNC(=O)C1CCN(c2cc(C)nc3c(-c4ccc(Cl)cc4)c(C)nn23)CC1 -17%
CCN(CC)CCCNC(=O)c1ccc2c(Cl)c3c(nc2c1)CCCC3 -12.8%
CCOC(=O)Cn1c(=O)n(-c2ccccc2OC)c2nc(-c3ccc(C(C)C)cc3)nc(C(N)=O)c21 -16.9%
CC(C)CC1Nc2ccc(C(=O)NCCCOC(C)C)cc2NC1=O (stereo not given) -18.8%
CCc1nn2c(=O)cc(COC(=O)C(CC)c3ccccc3)nc2s1 (stereo not given) -5.72%
CCOC(=O)c1c(Oc2ccc(C(C)=O)cc2)nnc(-c2ccccc2)c1-c1ccccc1 -27.1%
CCCNC(=O)CSc1nc(-c2ccc(OC)cc2)cc(C(F)(F)F)n1 -9.41%
COc1ccccc1N1CCN(CC(O)COc2cc(OC)c(OC)c(OC)c2)CC1 (stereo not given) -6.65%
O=C(CC1N=C2c3ccccc3N=C(SCC(=O)Nc3ccc(F)cc3)N2C1=O)NCc1cccs1 (stereo not given) -6.27%
CNCC[C@@H](Oc1ccccc1C)c1ccccc1 -12.5%
CC1=Nc2cc(C(=O)NCCc3ccc(Cl)cc3)ccc2Sc2c(C)ccc(C)c21 -42.1%
CCOC(=O)CC(=O)CSc1nc2ccccc2c(=O)n1CCc1ccc(S(N)(=O)=O)cc1 -40.6%
CC1CCCCN1CCCNC(=O)c1cc(Sc2ccc(Cl)cc2)nc2ccccc12 (stereo not given) -14.1%
CC(=O)Nc1ccc(NC(=O)CCS(=O)(=O)c2ccc3c(c2)CC(=O)N3C)cc1 -17.4%
COc1ccccc1CNC(=O)c1oc2ccc3c(c2c1C)C(=O)CC(C)(C)O3 22.7%
CCOc1ccc(-n2nc3ccc(NC(=O)c4ccc(-c5cccc(Cl)c5)o4)cc3n2)cc1 -67.2%
COc1ccccc1Cc1nc2ccccc2nc1SCC(=O)NCc1ccccc1Cl 12.3%
CN1CCc2nc3sc(C(=O)Nc4ccccc4C(F)(F)F)c(N)c3cc2C1 -5.96%
